Experiment [1] has as its target FLAG-CAMDI (Coiled-coil protein Associated with Myosin II and DISC1) (mouse) (UniProt E9Q8Q6). As to the kind of experiment: co-IP; tagged proteins co-transfected in cells (SH-SY5Y named for Fig 5A,B); NP-40 lysis buffer (20 mM Tris-HCl pH 7.2, 2 mM EDTA, 0.5% NP-40, 8% sucrose, 80 mM dithiothreitol); protein A- or G-sepharose; immunoblot.
For experiment [2], the target named is endogenous KIBRA (mouse brain) (mouse (endogenous in mouse brain)) (UniProt Q5SXA9). The experiment can be described thus: co-IP; endogenous proteins, P56 mouse brain lysate, WT and CAMDI KO mice; IP-IB with the indicated antibodies.
The next experiment addresses DsRed-KIBRA (mouse) (UniProt Q5SXA9). The experiment can be described thus: co-IP; tagged proteins co-transfected in cells (SH-SY5Y named for Fig 5A,B); NP-40 lysis buffer (20 mM Tris-HCl pH 7.2, 2 mM EDTA, 0.5% NP-40, 8% sucrose, 80 mM dithiothreitol); protein A- or G-sepharose; immunoblot. Background: A western blot detects proteins with antibodies after separation by electrophoresis.

Amino acid sequences for entries named in this document (tags omitted). A change or cut given only in a name is not applied to a line headed by its entry.
UniProt Q5SXA9: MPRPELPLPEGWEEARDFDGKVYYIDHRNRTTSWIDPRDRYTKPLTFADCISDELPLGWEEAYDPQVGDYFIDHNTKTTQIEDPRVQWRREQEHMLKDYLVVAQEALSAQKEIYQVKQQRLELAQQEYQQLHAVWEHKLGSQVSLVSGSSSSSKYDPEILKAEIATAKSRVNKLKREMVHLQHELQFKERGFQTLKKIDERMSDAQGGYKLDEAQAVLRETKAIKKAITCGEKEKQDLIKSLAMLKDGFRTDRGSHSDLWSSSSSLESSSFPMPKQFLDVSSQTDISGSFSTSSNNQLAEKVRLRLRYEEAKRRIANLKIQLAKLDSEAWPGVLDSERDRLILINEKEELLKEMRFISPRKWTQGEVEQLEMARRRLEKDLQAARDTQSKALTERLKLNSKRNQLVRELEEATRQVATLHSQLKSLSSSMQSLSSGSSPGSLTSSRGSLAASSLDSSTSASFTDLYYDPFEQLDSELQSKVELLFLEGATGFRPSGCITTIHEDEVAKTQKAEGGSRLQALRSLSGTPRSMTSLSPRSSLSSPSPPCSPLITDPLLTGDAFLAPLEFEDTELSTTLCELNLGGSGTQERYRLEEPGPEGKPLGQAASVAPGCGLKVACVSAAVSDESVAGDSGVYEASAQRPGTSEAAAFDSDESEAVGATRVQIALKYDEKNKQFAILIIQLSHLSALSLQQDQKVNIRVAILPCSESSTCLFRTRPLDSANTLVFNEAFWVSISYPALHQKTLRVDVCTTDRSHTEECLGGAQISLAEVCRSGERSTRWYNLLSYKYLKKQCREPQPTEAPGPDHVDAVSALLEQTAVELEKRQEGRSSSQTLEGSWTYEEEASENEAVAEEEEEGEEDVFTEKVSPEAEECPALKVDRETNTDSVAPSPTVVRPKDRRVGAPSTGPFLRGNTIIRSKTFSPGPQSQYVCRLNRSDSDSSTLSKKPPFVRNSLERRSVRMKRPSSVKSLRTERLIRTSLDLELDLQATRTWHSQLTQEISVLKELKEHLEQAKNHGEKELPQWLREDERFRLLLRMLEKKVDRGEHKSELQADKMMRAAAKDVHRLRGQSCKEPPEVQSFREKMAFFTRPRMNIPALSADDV

These are yes or no findings as the source states them, for the method shown. In cells and extracts the contact can be indirect. Some results given as binding are weak or reduced against the parent protein; the word gives no strength. For part of these data: Tags and fused reporters may be left off the sequences shown.

On to “KIBRA-HA deletion mutant (990-1,104 amino acids deletion) (from UniProt Q5SXA9 1-989) (domain or fragment)”, for which the binding result in experiment [1] was “no binding”.

As for “KIBRA-HA (kidney and brain expressed protein), full (from UniProt Q5SXA9 1-1104)”, the binding result in experiment [1] is “binds”.

For “endogenous CAMDI (mouse brain) (from UniProt E9Q8Q6 1-1531)”, the binding result in experiment [2] was “binds”.

B1: EGFP-Rab11a wild type (protein, UniProt P62494 1-216)
chain: MGTRDDEYDYLFKVVLIGDSGVGKSNLLSRFTRNEFNLESKSTIGVEFATRSIQVDGKTIKAQIWDTAGQERYRAITSAYYRGAVGALLVYDIAKHLTYENVERWLKELRDHADSNIVIMLVGNKSDLRHLRAVPTDEARAFAEKNGLSFIETSALDSTNVEAAFQTILTEIYRIVSQKQMSDRRENDMSPSNNVVPIHVPPTTENKPKVQCCQNI
Turning to B1, the binding entry in experiment [1] was “binds”.

B2: EGFP-Rab11a dominant active (Q70L) (protein, UniProt P62494 1-216)
chain: MGTRDDEYDYLFKVVLIGDSGVGKSNLLSRFTRNEFNLESKSTIGVEFATRSIQVDGKTIKAQIWDTAGLERYRAITSAYYRGAVGALLVYDIAKHLTYENVERWLKELRDHADSNIVIMLVGNKSDLRHLRAVPTDEARAFAEKNGLSFIETSALDSTNVEAAFQTILTEIYRIVSQKQMSDRRENDMSPSNNVVPIHVPPTTENKPKVQCCQNI
With B2, in experiment [1], the binding entry was “binds”.

B3: HA-tagged CAMDI first coiled-coil domain (CC1, 576-706) (domain or fragment, UniProt E9Q8Q6 576-706)
chain: EQLQSLKEFYLTEIPWKDEDDAVVKCQSNSAERKWQLFLKKSFLTQDLSLEFLNLINMAKENEILNVKNEMHIMENIMEKQTNGREELSHLRVAWYLKAIEGKPAREQWEMFKEKLTKTTHSVKLLHEVLM
For the molecule B3, the binding result in the experiment with DsRed-KIBRA (mouse) is “binds”.

The record behind these values is PMC6857912.
